Hit rate of the full screen: of about 150,000 compounds, about 6,500 (4.3%) were called active. This list was built around the results that the source calls inconclusive (neither active nor inactive); the mix of calls is not that of the screen. The call rests on the fitted dose curve; in most records, active means well fitted inhibition curve with a large enough effect (not every such curve was filed as active); inconclusive means small, poorly fitted or top-dose-only effect, or another doubt; inactive means no such curve, though single readings can be large or run the other way. No potency is given beside an inconclusive call; the fits are too rough.
target: 15-hydroxyprostaglandin dehydrogenase [NAD(+)] (Homo sapiens) (UniProt P15428); test: qHTS Assay for Inhibitors of HPGD (15-Hydroxyprostaglandin Dehydrogenase); details: purified HPGD, NADH fluorescence kinetic, PGE2 substrate; activity change, negative = inhibition: stronger effect = lower value
Sequence of UniProt P15428 (P15428 whole entry, looked up): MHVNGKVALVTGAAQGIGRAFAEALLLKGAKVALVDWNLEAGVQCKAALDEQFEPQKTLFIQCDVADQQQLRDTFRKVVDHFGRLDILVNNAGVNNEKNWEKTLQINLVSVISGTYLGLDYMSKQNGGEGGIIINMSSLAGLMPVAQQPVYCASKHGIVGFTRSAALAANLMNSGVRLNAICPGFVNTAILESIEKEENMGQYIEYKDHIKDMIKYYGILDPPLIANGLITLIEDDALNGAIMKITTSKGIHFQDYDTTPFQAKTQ
Procedure, shortened: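 20 nM HPGD preincubated 15 min at room temperature with compound in 50 mM Tris-HCl pH 8, 0.01% Tween 20. Started with 1 mM NAD+ and 30 uM prostaglandin E2; NADH fluorescence (360/450 nm) read 5 times over 30-s intervals, last minus first.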
On the % scale 0 is the no-effect control and ±100 the full control effect; potency means the concentration at half of the fitted maximal effect; tags describe the fitted curve by direction and shape.

SMILES | activity change, negative = inhibition | Potency
O=C(COC(=O)Cn1cnc2ccccc2c1=O)Nc1cc(Cl)ccc1[N+](=O)[O-] | inactive: -15% | –
CC(=O)Oc1ccc2c(=O)c(N3C(=O)c4ccccc4C3=O)c(C)oc2c1 | – | active: 25.1 µM
COc1ccc(S(=O)(=O)N2CCCCCC2)cc1N(C)S(=O)(=O)c1ccc(Cl)cc1 | inactive: -11.9% | –
O=[N+]([O-])c1cc2c(cc1/C=N/n1c(-c3ccccn3)n[nH]c1=S)OCO2 | – | inconclusive [inhibitor, single point]
CC1CN(C(=O)C2CC2)C(C)CN1C(=O)C1CC1 (stereo not drawn) | inactive: -13.2% | –
COc1ccc(-c2nsc(SCC(=O)Nc3cc(C)on3)n2)cc1 | – | active: 25.1 µM
COc1ccc2c(C(F)(F)F)cc(=O)oc2c1C | – | inconclusive [inhibitor, partial curve, poor fit]
CCC(C)NC(=O)c1c(N)n(/N=C/c2cccnc2)c2nc3ccccc3nc12 (stereo not drawn) | – | inconclusive [inhibitor, partial curve]
c1ccc(N2CCN(c3ncnc4c3oc3ccccc34)CC2)cc1 | – | inconclusive [inhibitor, partial curve]
CCc1cccc2c(-c3ccccc3)c3c(nc12)OCC3 | – | inconclusive [inhibitor, partial curve]
CCCc1nc2oc3c(NCc4ccccn4)ncnc3c2c2c1COC(C)(C)C2 | – | inconclusive [inhibitor, partial curve]
CCN(CC)c1ccc(NC2=C(Cl)C(=O)c3ccccc3C2=O)cc1 | – | active: 7.94 µM
Clc1ccc(OCc2nn3c(-c4ccccc4)nnc3s2)c(Cl)c1 | – | inconclusive [inhibitor, full curve]
Cc1cccc(OC(C)c2ccnc3nc(/N=C/N(C)C)nn23)c1 (stereo not drawn) | inactive: -28.9% | –
O=C(Cc1ccccc1)Nc1cccc(N2CCCC2)c1 | – | inconclusive [inhibitor, partial curve]
O=c1[nH]c2ccccc2nc1C(F)(F)C(F)F | – | inconclusive [inhibitor, partial curve]
C/C(N)=C(/C#N)C(=O)COC(=O)c1cc(-c2cccc(Br)c2)nc2ccccc12 | – | inconclusive [inhibitor, partial curve]
CCOc1c2ccc(C(=O)NC3CCCc4ccccc43)cc2nn1CC (stereo not drawn) | – | inconclusive [inhibitor, partial curve]
COc1cccc(/C=C/C(=O)OCC(=O)Nc2cc(C(F)(F)F)ccc2Cl)c1 | – | inconclusive [inhibitor, partial curve]
CCc1cc2c(=O)c(-c3ccc4c(c3)OCCO4)coc2cc1OS(C)(=O)=O | inactive: -23.2% | –
CCOC(=O)c1ccc(-c2ccc(CO)o2)cc1 | – | inconclusive [inhibitor, partial curve]
COc1ccc(CCNC(=O)CSc2ncnc3c2oc2ccccc23)cc1OC | inactive: -14.7% | –
O=C(Cc1ccccc1)Nc1ccccc1CO | – | active: 14.1 µM
C=C(C)CN=C1SC(C(=O)Nc2sc3c(c2C(=O)OC)CCC3)C(N)=C1C(N)=O (stereo not drawn) | – | inconclusive [inhibitor, single point]
COCCNC(=O)CCSc1nc(-c2ccc(OC)cc2)cc(C(F)(F)F)n1 | – | inconclusive [inhibitor, partial curve]

SMILES | activity change, negative = inhibition | Potency
COc1ccccc1C(=O)Nc1sc2c(c1C(=O)NCc1ccco1)CCCC2 | – | inconclusive [inhibitor, partial curve]
Nc1c2c(nc3ccn(Cc4ccccc4)c(=O)c13)CCC2 | – | inconclusive [inhibitor, partial curve]
COc1cccc2c1C(=O)c1ccc3ccccc3c1C2=O | inactive: -13.1% | –
CCCOc1ccc(/C=N/NC(=O)C(=O)Nc2ccccn2)cc1 | – | inconclusive [inhibitor, partial curve]
N#Cc1nc(-c2ccc(OCc3ccc(Cl)cc3)cc2)oc1NCCCn1ccnc1 | – | inconclusive [inhibitor, full curve]
Cc1cc(C)nc(SCc2ccc(C(=O)NNC(=O)Nc3cccc(Cl)c3)cc2)n1 | inactive: -30.6% | –
CCOC(=O)Cn1c(=NC(=O)c2cc(-c3cccs3)nc3ccccc23)sc2cc(S(N)(=O)=O)ccc21 | – | inconclusive [inhibitor, partial curve]
O=C(NC(=S)Nc1ccc(S(=O)(=O)N2CCCC2)cc1)c1cccs1 | – | inconclusive [inhibitor, partial curve]
CCc1ccc2[nH]c(=O)c(C(c3nnnn3CC3CCCO3)N3CCCc4ccccc43)cc2c1 (stereo not drawn) | inactive: -22.9% | –
Cc1ccccc1OCCn1cnc2c(N)ncnc21 | – | inconclusive [inhibitor, single point]
O=C(c1cccc(-n2cnnn2)c1)N1CC=C(c2ccccc2)CC1 | – | inconclusive [inhibitor, single point]
Cc1ccc2c(CSc3nc4ccccc4c(=O)n3CCCO)cc(=O)oc2c1C | – | inconclusive [inhibitor, full curve, poor fit]
Cc1ccc(NC(=O)Cn2cccc2)c(C)c1 | – | active: 2.24 µM
Cc1ccc(/C=C/C(=O)N2CC(C)CC(C)C2)o1 (stereo not drawn) | – | inconclusive [inhibitor, single point]
CCC(=S)/C=C1\Sc2ccc3ccccc3c2N1CCCS(=O)(=O)O | – | active: 31.6 µM
CC(C)[C@@H]1NC(=O)c2cc([N+](=O)[O-])cc(I)c2NCCC[C@@H](C(N)=O)NC(=O)[C@H](CO)NC1=O | – | inconclusive [inhibitor, single point]
COC(=O)c1ccc(OCc2cc(=O)n3ccsc3n2)cc1 | – | inconclusive [inhibitor, partial curve]
COc1ccc(NC(=S)NCCSc2ccc(Cl)cc2)c(OC)c1 | – | active: 15.8 µM
Cc1[nH]nc(SCC(=O)N2CCCCC2)c1[N+](=O)[O-] | – | active: 28.2 µM
Cc1cc(SCC(=O)c2cccs2)nc2ccccc12 | – | active: 4.47 µM
O=C(N/N=C/C(Br)=C\c1ccccc1)c1n[nH]c2c1CCC2 | – | inconclusive [inhibitor, partial curve]
O=C(Cn1c(C(F)(F)F)nc2ccccc21)c1ccc(F)cc1 | inactive: -12.7% | –
O=C(Nc1ccc2ccccc2c1)c1cn(-c2ccccc2)nc1-c1cccs1 | – | inconclusive [inhibitor, single point]
Cn1cccc1CC(=O)NNC(=O)Nc1cccc(Cl)c1 | inactive: -1.37% | –
Cc1cc(-c2ccccc2)[nH]c(=O)c1S(=O)(=O)c1ccccc1 | – | inconclusive [inhibitor, partial curve]

SMILES | activity change, negative = inhibition | Potency
COc1cc([N+](=O)[O-])ccc1-c1ccc(C(=O)Nc2ccc(NC(C)=O)cc2)o1 | – | active: 28.2 µM
O=C(CCSCc1cccc(Cl)c1)NCCc1ccccc1 | – | active: 8.91 µM
CN1CCN(C(=O)c2ccc(CSc3nc4ccncc4n3Cc3ccc(F)cc3)cc2)CC1 | – | active: 15.8 µM
O=C(CSc1nnc(-c2ccccn2)n1Cc1ccco1)c1ccc(Cl)cc1 | – | inconclusive [inhibitor, single point]
Cc1nc(NCc2ccco2)c2oc3ccccc3c2n1 | – | inconclusive [inhibitor, partial curve]
COc1ccc2c(C)cc(N3CCOCC3)nc2c1 | – | inconclusive [inhibitor, partial curve]
CCOC(=O)N1CCN(c2ccc(C(=O)c3ccccc3)cc2F)CC1 | – | active: 28.2 µM
COc1cc(C)c(-c2cc(C(=O)O)c(C)o2)cc1C(C)C | – | inconclusive [inhibitor, partial curve, poor fit]
Fc1ccccc1CSc1nc2ncccc2[nH]1 | – | active: 17.8 µM
CN(Cc1ccccc1)C(=O)CCCn1c(=O)[nH]c2cc(Cl)ccc2c1=O | – | active: 25.1 µM
Cc1cc2cc(CCNC(=O)c3ccc(Br)o3)c(=O)[nH]c2cc1C | – | inconclusive [inhibitor, partial curve]
CCN1C(=O)c2cccc3cccc1c23 | – | inconclusive [inhibitor, single point]
c1csc(-c2nc3ccccc3[nH]2)c1 | – | inconclusive [inhibitor, partial curve]
Cn1c(N2CCC(C(N)=O)CC2)nc2c1c(=O)n(Cc1cccc(Br)c1)c(=O)n2C | inactive: -20.1% | –
CCc1cccc(C)c1NC(=O)COC(=O)CNS(=O)(=O)/C=C/c1ccccc1 | inactive: 1.04% | –
COc1ccc(Cn2c(SCc3ccccc3C)nc3cc(OC)c(OC)cc3c2=N)cc1 | inactive: -10.6% | –
COC(=O)c1c(NC(=O)Cn2cnc([N+](=O)[O-])n2)sc2c1CCC(C)C2 (stereo not drawn) | – | active: 11.2 µM
CC(C)=C1CCC(C)CC1=O (stereo not drawn) | inactive: -9.1% | –
COc1cc2c(C#N)c(N3CCc4ccccc4C3)nc(N)c2c(N)n1 | – | inconclusive [inhibitor, partial curve]
O=C(Oc1ccc(OC(=O)c2ccco2)c(S(=O)(=O)c2ccc(Br)cc2)c1)c1ccco1 | – | active: 28.2 µM
Nc1cc(N)nc(SCC(=O)N2CCCCC2)n1 | – | active: 28.2 µM
Cc1ccc(S(=O)(=O)c2nc(Nc3ccccc3)sc2Cl)cc1 | inactive: -24.8% | –
NS(=O)(=O)c1ccc(N=Nc2nc3[nH]c(=O)[nH]c(=O)c3[nH]2)cc1 | – | inconclusive [inhibitor, partial curve]

From PubChem BioAssay AID894 (National Center for Advancing Translational Sciences (NCATS), 2007)
